Where “and” joins values, the source holds several entries; their conditions need not be identical. Equal values may be shown once.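 The compound was tested at five concentrations on cells cultured in 96-well plates, with a 48-hour exposure period. The concentration for 50% growth inhibition is given as GI50. Definition used: TGI = concentration required for complete inhibition of growth.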

The test system of the assay is NCI-H322M lung. Put plainly: NCI-60 cell line screen, 48 h.
For the molecule `Cc1ccc(C(=O)Nc2ccc(CN3CCN(C)CC3)c(C(F)(F)F)c2)cc1C#Cc1cnc(N)cc1C#N`, the GI50 is 0.284 µM and the TGI stood at 3.01 µM. `CCCCCCCCCCC/C(=N/O)c1ccc(O)c2ncccc12` showed a TGI of 93.4 µM. For `O=C1CCc2cc3c(cc21)C(C(=O)O)CC3` (stereo not given), the TGI is greater than 100 µM. With `COP(=O)(OC)C(NC(c1ccccc1)c1ccccc1)c1ccc2c(c1)OCO2` (stereo not given), the GI50 is 36.5 µM and the TGI is greater than 100 µM.

Turning to `COc1cc(Nc2nc3cc(N)cc(N)c3nc2-c2ccccc2)cc(OC)c1`, the GI50 is 13.9 µM and the TGI turned out to be 59.2 µM. On to `O=S(=O)([O-])c1cccc2cccc(N=Cc3ccccc3[O-])c12.O=S(=O)([O-])c1cccc2cccc(N=Cc3ccccc3[O-])c12.[O]=[U]=[O]`, for which the GI50 is greater than 100 µM and the TGI is greater than 100 µM. For the molecule `CCCCCCCCCCC[N+]1(Cc2ccccc2)CC2CCN(Cc3ccccc3)CC2C1` (stereo not given), the TGI was 2.9 µM.

As to `N[C@@H](Cc1c[nH]c2ccccc12)C(=O)NC1CCN(C(=O)c2c[nH]c3ccccc23)CC1`, the GI50 is greater than 100 µM and the TGI is greater than 100 µM. As for `O=C1C=C[C@@]23CC1C(O)C[C@H]2C=Cc1ccccc13` (stereo not given in full), the TGI was greater than 100 µM.

In the case of `CC12CCC3C(CC=C4CC(O)CCC43C)C1C/C(=C\N1CCCC1)C2=O` (stereo not given), the GI50 is greater than 100 µM and the TGI is greater than 100 µM.

For the molecule `C#Cc1cccc(Nc2ncnc3cc(OCCOC)c(OCCOC)cc23)c1`, the TGI was found to be 17.7 µM. For `O=C1/C(=C(/Br)I)c2ccccc2-c2ccccc21`, the TGI came to 27.2 µM.

In the case of `Nc1ccccc1C#C/C=C\C#Cc1ccccc1C(F)(F)F`, the GI50 is 12.1 µM and the TGI was 27.9 µM. Regarding `CC1OC(n2ncc(=O)[nH]c2=O)C=CC1=O` (stereo not given), the TGI is greater than 100 µM. `N#C[C@H]1C(=O)C(c2nc3ccccc3[nH]2)S[C@H]1c1ccccc1` (stereo not given in full) came in with a TGI greater than 100 µM.

Take `N#Cc1c(C(=O)c2ccccc2)cnn1-c1ccccc1`: the GI50 was greater than 25 µM and the TGI was greater than 25 µM.

Take `CC1=C([Se]CC(OC(=O)CC[Se]c2ccccc2)C(=O)NCCCCCC(=O)OCc2ccccc2)C(=O)c2ccccc2C1=O` (stereo not given): the GI50 is 2.87 µM and the TGI was found to be 24.8 µM. `Cc1ccc(C(=O)NN=C(/N=N/c2cccc(C)c2)c2ccc(N(C)C)cc2)cc1`: the TGI is greater than 100 µM. Same read-out and setting: to `COc1ccc(Nc2nc(NNC(=O)Cc3ccccc3)nc(NNC(=O)c3ccncc3)n2)cc1` belongs greater than 10 µM; to `Nc1ccc2c(SCCSc3c4ccccc4nc4cc(N)ccc34)c3ccccc3nc2c1`, greater than 100 µM; to `Cc1cc(C)c(C#N)c(SC(=S)NC(=O)c2ccccc2)n1`, greater than 100 µM. Turning to `[Cl][Bi]([O]c1ccccn1)[O]c1ccccn1`, the GI50 was greater than 100 µM and the TGI was greater than 100 µM.

On to `CC(C)NCCNC(=O)c1ccccc1Nc1c(Cl)cccc1Cl`, for which the TGI was found to be 23 µM.

As to `COc1cccc(OC/C(N=Cc2ccncc2)=N/NC(=O)c2ccncc2)c1`, the TGI was greater than 100 µM. `NNc1nnc(-c2ccccc2)nc1Cc1ccccc1` had a TGI greater than 100 µM. Turning to `CCOc1ccccc1N=NC1C(=O)N(C(=O)CC(=O)Nc2ccccc2OC)N=C1C` (stereo not given), the TGI is greater than 100 µM.

As for `CC(=O)Nc1nc(C)c(S(=O)(=O)NC(=O)N2c3ccccc3CCc3ccccc32)s1`, the TGI is greater than 100 µM.

`O=C1CCC(Cc2ccc(Cl)cc2Cl)C(=O)N1` (stereo not given) gave a TGI greater than 100 µM. `O=c1oc2ccccc2c(O)c1C(c1ccc(O)cc1)c1c(O)c2ccccc2oc1=O` returned a TGI greater than 100 µM. As to `Cc1ccc(C(CN(C)C)C(=O)c2ccccc2)cc1` (stereo not given), the GI50 was 17.9 µM and the TGI stood at 37.9 µM. Molecule `O=C1Sc2cc3ccccc3cc2C(=O)Sc2cc3ccccc3cc21` displayed a TGI greater than 100 µM. `CCOP(=O)(OCC)C(NC(c1ccccc1)c1ccccc1)c1ccccc1` (stereo not given): the GI50 is 11.8 µM and the TGI came out at 24.6 µM. As to `Cc1cn(C2CC(F)C(CO)O2)c(=O)[nH]c1=O` (stereo not given), the GI50 was greater than 100 µM and the TGI was greater than 100 µM. `COC(C[C@H]1CCCC[C@]1(O)/C(=C\CO[Si](C(C)C)(C(C)C)C(C)C)Sc1ccccc1)OC` displayed a TGI greater than 100 µM. With `COC(C/C=C\C=C\CC/C=C/CC(C)/C=C/C(=C\C(=O)O)CC(=O)O)/C(C)=C\C=C(/C)C(=O)O` (stereo not given), the TGI is greater than 100 µM.

The molecule `O=C1NC(=S)N/C1=C\c1ccc(Sc2ccccc2C(=O)O)s1` showed a TGI greater than 100 µM. Take `CN(c1ccc(Cl)cc1)S(=O)(=O)c1ccccc1`: the TGI is greater than 100 µM.

`CCCCCCCCCCCCCCCCCC(=O)OCC(CN(C)CCN(C)C)OC(=O)CCCCCCCCCCCCCCCCC` (stereo not given) returned a TGI greater than 100 µM.

In the case of `CCCC1c2c(ccc3ccccc23)Oc2ccc3ccccc3c21`, the TGI was greater than 100 µM. The same measure, in the same setting: to `c1cc2c3c(c1)[C@@H]1O[C@@H]1c1cccc(c1-3)[C@@H]1O[C@H]21` belongs greater than 100 µM. In turn, `COc1ccc2[nH]c(-c3ccccn3)cc(=O)c2c1` yielded a TGI greater than 100 µM. For `Cc1cn(C2CC(SCCO)C(CO)O2)c(=O)[nH]c1=O` (stereo not given), the TGI was greater than 100 µM.

In turn, `Cc1ccccc1-c1c(N)nc(NC#N)nc1C(=O)Nc1ccccc1` returned a TGI greater than 100 µM.

Consider `C1CC[N-]CC1.C1CC[N-]CC1.C1CC[N-]CC1.C1CC[N-]CC1.[Cl][Rh][Cl]`, for which the GI50 is 14.1 µM and the TGI amounted to 87.5 µM. In turn, `O=C(O)Cn1ncn(NC(=O)Cc2ccccc2)c1=S` returned a TGI greater than 10 µM.

`CC(O)/C=C/C(CCC(C)CO)C(C)C` (stereo not given) gave a TGI greater than 100 µM. Take `C=C1CC(Cn2cc(Br)c(=O)[nH]c2=O)(c2ccc(Br)cc2)OC1=O` (stereo not given): the TGI turned out to be 28.1 µM.

In turn, `OC1(C(O)(c2ccc(-c3ccccc3)cc2)c2ccc(-c3ccccc3)cc2)CCCCC1` gave a TGI greater than 100 µM. The molecule `C/C(=N/S(=O)(=O)c1ccc(Cl)c(Cl)c1)OCC(C)(C)C` registered a TGI greater than 100 µM. Consider `CCCCn1c2cc(OCc3cn(-c4ccc(Cl)cc4)nn3)ccc2c2ccnc(C)c21`, for which the GI50 is 8.95 µM and the TGI was greater than 33.3 µM. For the molecule `OCC1c2ccccc2-n2nc(-c3ccccc3)c(O)c21` (stereo not given), the TGI was greater than 100 µM. In turn, `CCCCCCCCCC(=O)CC(=O)c1ccc(O)cc1O` displayed a TGI greater than 100 µM.

Molecule `CCOC(=O)/C(C1=N[C@H](C(=O)OCC)CS1)=C(\O)c1ccccc1` gave a TGI greater than 100 µM. Molecule `COC(=O)C1=C(C)N(NC(N)=O)C2(N)N(NC(N)=O)C(C)=C(C(=O)OC)C12C(=O)OC` (stereo not given) had a TGI greater than 100 µM.

As to `CSc1nc(NC2OCC(OC(C)=O)C(OC(C)=O)C2OC(C)=O)c2c(OC(C)=O)c(C)c(=O)oc2n1` (stereo not given), the TGI was greater than 100 µM. Consider `OCCCCC#Cc1ccccc1C#Cc1ccccc1`, for which the GI50 was 14.9 µM and the TGI is 29.3 µM.

`CCC1(O)CC(O)c2c(O)c3c(c(O)c2C1C(=O)OC)C(=O)c1cccc(O)c1C3=O` (stereo not given) yielded a TGI of 24 µM. In the case of `COC(=O)C(CCS(=O)(=O)CC(=O)C(=O)Nc1cccc(C(C)=O)c1)C(=O)OC`, the TGI was greater than 100 µM. For the molecule `CC1Cc2c(cc(N)nc2Br)NC1=O` (stereo not given), the TGI was greater than 100 µM. `NC(=O)CC[C@H]1C(=O)N=C(N)N1C(=O)OCc1ccccc1` had a TGI greater than 100 µM. In the case of `Cc1c(C#N)cccc1-c1cc(-c2cn(Cc3cccc(C(C)(C)O)n3)nn2)nc(N)n1`, the GI50 is 81.3 µM and the TGI is greater than 100 µM. As for `O=c1n(C2CCCCC2)c(=C(Cl)Cl)c(=C(Cl)Cl)n1C1CCCCC1`, the TGI was greater than 100 µM. With `CC(=O)c1cc(S(=O)(=O)c2ccc(O)c(C(C)=O)c2)ccc1O`, the TGI was greater than 100 µM. As to `CCN(CC)c1ccc(/C=C\c2cc(C)c3cc(C)ccc3n2)cc1`, the GI50 was 87 µM and the TGI was greater than 100 µM. Turning to `Oc1ccc(Cc2ccc(O)c3ncccc23)c2cccnc12`, the GI50 is 0.294 µM and the TGI is greater than 100 µM. For `C/C=C\C(CC(=O)NCCc1c[nH]c2ccccc12)CC(=O)OC` (stereo not given), the TGI was greater than 100 µM.

Regarding `COc1c(O)c2c(c3cc(C(=O)N4CCc5c4c(O)c(OC)c4[nH]c(C(=O)N6CC7CC78C6=CC(=O)c6[nH]cc(C)c68)cc54)[nH]c13)CCN2C(N)=O` (stereo not given), the TGI is 47 nM and > 100 µM and 0.0194 µg/mL. `Cn1c(=O)[nH]n(-c2ccc3ccccc3c2)c1=O` yielded a TGI greater than 100 µM. Take `COc1ccc(-n2c(SCc3cc(OC)c(OC)c(OC)c3)nc3ccc(C)cc3c2=O)c(OC)c1`: the GI50 was 3.61 µM and the TGI was greater than 100 µM. For `CCCCN(CCCC)C1=Nc2ccccc2-n2c(nnc2C(=O)OCC)C1`, the TGI was greater than 100 µM. `CCOC(=O)c1c(SCCN2CCCCC2)n(-c2ccccc2)c(=S)n(-c2ccccc2)c1=O` had a TGI greater than 74.8 µM. Take `Cc1cccc(C(C)(C)C)c1NC(=O)C(=O)C(C(=O)/C=C\c1ccccc1)C1OC(=O)c2ccccc21` (stereo not given): the TGI was greater than 100 µM. For `C=C1C(=O)O[C@H]2[C@H]1CC/C(COC(=O)/C=C/C(=O)OC/C1=C/CC[C@@]3(C)O[C@H]3[C@H]3OC(=O)C(=C)[C@@H]3CC1)=C\CC[C@@]1(C)O[C@@H]21`, the GI50 was greater than 100 µM and the TGI was greater than 100 µM. Molecule `COc1ccc(/C=N/N=C(\N)NO)c(OC)c1OC` returned a TGI greater than 100 µM.

`Cc1cn([C@@H]2C[C@](C)(CO)N(C)O2)c(=O)[nH]c1=O` registered a TGI greater than 100 µM. `O=C(/C=C/c1ccc(OCC(=O)N2CCN(c3ccccc3)CC2)cc1)c1ccc(Cl)cc1`: the TGI was greater than 100 µM. In the case of `COc1ccccc1-[n+]1cc(-c2ccc(-c3ccccc3)cc2)n2c1CCCCC2`, the GI50 is 1.83 µM and the TGI came to 13.9 µM.

Regarding `CC[C@]1(O)CC2CN(CCc3c([nH]c4ccccc34)[C@@](C(=O)OC)(c3cc4c(cc3OC)N(C)[C@H]3[C@@](O)(C(=O)OC)[C@H](OC(C)=O)[C@]5(CC)C=CCN6CC[C@]43[C@@H]65)C2)C1` (stereo not given in full), the GI50 is less than 0.005 µM and the TGI came out at 48.8 µM. For the molecule `O=C1c2c(O)cccc2Cc2cccc(O)c21`, the TGI is 14.5 µM. Same read-out and setting: the figure for `O=P1(N(CCCl)CCCl)NCCCO1` (stereo not given) is greater than 250 µM; for `O=C(NCCNCCO)N/N=C/c1ccccc1` it is greater than 100 µM. Still for that read-out and setting: to `Clc1ccc(Cc2nc3ccccc3nc2-c2cccc(Cl)c2)cc1` belongs 28.8 µM. Consider `CC(=O)OC[C@H]1O[C@@H](n2ccc(=O)[nH]c2=O)[C@H](OC(C)=O)[C@@H]1OC(C)=O`, for which the GI50 was greater than 100 µM and the TGI is greater than 100 µM. Take `OCc1cn(Cc2cccc(Cl)c2)c2ccccc12`: the GI50 was 11.5 µM and the TGI is 48.6 µM. `O=C(O)c1cc2ccccc2c(O)c1O` showed a TGI of 27.7 µM.

(Values after PubChem BioAssay (NCI).)
